# Data reported in PubChem BioAssay (Tox21).
# Results filed as inconclusive are left out. The call rests on the fitted dose curve; in most records, active means well fitted activation curve with a large enough effect in the repeat runs; inconclusive means weak or mixed curves; inactive means flat fitted curve, though single readings scatter. Some compounds were tested as several samples or in several runs, with calls that do not always agree. For part of its entries the source gives two or more results. Only these are listed. The source may hold further records. Values given together repeat one measurement in other runs, samples, wells, individuals or studies. What stands in brackets tells the records apart. Letters hold for one entry only.
# Experiment: A CellTox Green Cytotoxicity Assay to monitor cytotoxicity in HEK293 cells - 24 hour (AID 1224875); further: nearly all actives have a fitted effect of over 45% in size
# Details: CellTox Green fluorescence; series mostly up to 35.3 µM
# Summary of the method: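 Cytotoxicity was tracked continuously in HEK293 cells by a DNA-binding dye excluded from viable cells. Compounds were transferred in DMSO 5 h after seeding; fluorescence was recorded at intervals up to 40 h.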
# Potency means the concentration at half of the fitted maximal effect.
structure (smiles),measurement,value
Cc1cc(O)c(C(C)C)cc1Cl,Potency,active: 34.7 µM [sample A] and inactive [sample B]
